# Test results from the supplement of paper PMC8728848.
# The list shows a part of the results.
# What was measured:
# Assay in all cases: glycan array binding signal (z-score within array); higher = stronger binding
# Details in all cases: glycan notation: IUPAC condensed, linker removed
# [1] = target: Neu5Ac(a2-3)Gal(b1-3)GalNAc(b1-3)Gal(a1-4)Gal(b1-4)Glc
# How it was run: (§1)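 The binding signal is a Z-score computed within each array. Data were drawn from 3228 arrays in the Consortium for Functional Glycomics database, restricted to those with a known protein sequence. Scores were averaged over arrays of the same protein sequence at different concentrations or buffers, and over linkers, and negative values can be taken as non-binding.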
# [2] = target: Neu5Ac(a2-3)Gal(b1-3)GalNAc(b1-4)[Neu5Ac(a2-3)]Gal(b1-4)Glc
# How it was run: as §1
# [3] = target: Neu5Ac(a2-3)Gal(b1-3)GalNAc6S
# How it was run: as §1
# [4] = target: Neu5Ac(a2-3)Gal(b1-3)GlcNAc
# How it was run: as §1
# [5] = target: Neu5Ac(a2-3)Gal(b1-3)GlcNAc(b1-3)Gal(b1-4)GlcNAc
# How it was run: as §1
# [6] = target: Neu5Ac(a2-3)Gal(b1-3)GlcNAc6S
# How it was run: as §1
# [7] = target: Neu5Ac(a2-3)Gal(b1-3)[Fuc(a1-4)]GlcNAc
# How it was run: as §1
# [8] = target: Neu5Ac(a2-3)Gal(b1-3)[Fuc(a1-4)]GlcNAc(b1-3)Gal(b1-4)[Fuc(a1-3)]GlcNAc
# How it was run: as §1
# [9] = target: Neu5Ac(a2-3)Gal(b1-3)[Neu5Ac(a2-3)Gal(b1-4)]GlcNAc
# How it was run: as §1
# [10] = target: Neu5Ac(a2-3)Gal(b1-3)[Neu5Ac(a2-6)]GalNAc
# How it was run: as §1
# [11] = target: Neu5Ac(a2-3)Gal(b1-4)Glc
# How it was run: as §1
# [12] = target: Neu5Ac(a2-3)Gal(b1-4)GlcNAc
# How it was run: as §1
# [13] = target: Neu5Ac(a2-3)Gal(b1-4)GlcNAc(b1-3)Gal(b1-4)GlcNAc
# How it was run: as §1
# [14] = target: Neu5Ac(a2-3)Gal(b1-4)GlcNAc(b1-3)Gal(b1-4)GlcNAc(b1-3)Gal(b1-4)GlcNAc
# How it was run: as §1
# [15] = target: Neu5Ac(a2-3)Gal(b1-4)GlcNAc(b1-3)Gal(b1-4)[Fuc(a1-3)]GlcNAc
# How it was run: as §1
# [16] = target: Neu5Ac(a2-3)Gal(b1-4)GlcNAc6S
# How it was run: as §1
# [17] = target: Neu5Ac(a2-3)Gal(b1-4)[Fuc(a1-3)]GlcNAc
# How it was run: as §1
# [18] = target: Neu5Ac(a2-3)Gal(b1-4)[Fuc(a1-3)]GlcNAc(b1-3)Gal
# How it was run: as §1
# [19] = target: Neu5Ac(a2-3)Gal(b1-4)[Fuc(a1-3)]GlcNAc(b1-3)Gal(b1-4)GlcNAc
# How it was run: as §1
# [20] = target: Neu5Ac(a2-3)Gal(b1-4)[Fuc(a1-3)]GlcNAc(b1-3)Gal(b1-4)[Fuc(a1-3)]GlcNAc(b1-3)Gal(b1-4)[Fuc(a1-3)]GlcNAc
# How it was run: as §1
# [21] = target: Neu5Ac(a2-3)Gal(b1-4)[Fuc(a1-3)]GlcNAc6S
# How it was run: as §1
# [22] = target: Neu5Ac(a2-3)Gal6S(b1-4)GlcNAc
# How it was run: as §1
# [23] = target: Neu5Ac(a2-3)Gal6S(b1-4)[Fuc(a1-3)]GlcNAc
# How it was run: as §1
# [24] = target: Neu5Ac(a2-3)GalNAc
# How it was run: as §1
# [25] = target: Neu5Ac(a2-3)GalNAc(b1-4)GlcNAc
# How it was run: as §1
# [26] = target: Neu5Ac(a2-3)[GalNAc(b1-4)]Gal(b1-4)Glc
# How it was run: as §1
# [27] = target: Neu5Ac(a2-3)[GalNAc(b1-4)]Gal(b1-4)GlcNAc
# How it was run: as §1
# [28] = target: Neu5Ac(a2-3)[Neu5Ac(a2-6)]GalNAc
# How it was run: as §1
# [29] = target: Neu5Ac(a2-6)Gal(b1-4)GlcNAc
# How it was run: as §1
# [30] = target: Neu5Ac(a2-6)Gal(b1-4)GlcNAc(b1-2)Man(a1-3)[Neu5Ac(a2-6)Gal(b1-4)GlcNAc(b1-2)Man(a1-6)]Man(b1-4)GlcNAc(b1-4)GlcNAc
# How it was run: as §1
# [31] = target: Neu5Ac(a2-6)Gal(b1-4)GlcNAc(b1-3)Gal(b1-4)GlcNAc
# How it was run: as §1
# [32] = target: Neu5Ac(a2-6)Gal(b1-4)GlcNAc(b1-3)Gal(b1-4)[Fuc(a1-3)]GlcNAc(b1-3)Gal(b1-4)[Fuc(a1-3)]GlcNAc
# How it was run: as §1
# [33] = target: Neu5Ac(a2-6)Gal(b1-4)GlcNAc6S
# How it was run: as §1
# [34] = target: Neu5Ac(a2-6)GalNAc
# How it was run: as §1
# [35] = target: Neu5Ac(a2-6)GalNAc(b1-4)GlcNAc
# How it was run: as §1
# [36] = target: Neu5Ac(a2-8)Neu5Ac
# How it was run: as §1
# [37] = target: Neu5Ac(a2-8)Neu5Ac(a2-3)Gal(b1-4)Glc
# How it was run: as §1
# [38] = target: Neu5Ac(a2-8)Neu5Ac(a2-3)[GalNAc(b1-4)]Gal(b1-4)Glc
# How it was run: as §1
# [39] = target: Neu5Ac(a2-8)Neu5Ac(a2-8)Neu5Ac
# How it was run: as §1
# [40] = target: Neu5Ac(a2-8)Neu5Ac(a2-8)Neu5Ac(a2-3)Gal(b1-4)Glc
# How it was run: as §1
# [41] = target: Neu5Ac(a2-8)Neu5Ac(a2-8)Neu5Ac(a2-3)[GalNAc(b1-4)]Gal(b1-4)Glc
# How it was run: as §1
# [42] = target: Neu5Ac(a2-8)Neu5Ac(a2-8)Neu5Ac(a2-8)Neu5Ac(a2-3)[GalNAc(b1-4)]Gal(b1-4)Glc
# How it was run: as §1
# [43] = target: Neu5Ac9Ac(a2-6)Gal(b1-4)GlcNAc
# How it was run: as §1
# [44] = target: Neu5Gc(a2-3)Gal(b1-3)GlcNAc
# How it was run: as §1
# [45] = target: Neu5Gc(a2-3)Gal(b1-3)[Fuc(a1-4)]GlcNAc
# How it was run: as §1
# [46] = target: Neu5Gc(a2-3)Gal(b1-4)Glc
# How it was run: as §1
# [47] = target: Neu5Gc(a2-3)Gal(b1-4)GlcNAc
# How it was run: as §1
# [48] = target: Neu5Gc(a2-3)Gal(b1-4)[Fuc(a1-4)]GlcNAc
# How it was run: as §1
# [49] = target: Neu5Gc(a2-6)Gal(b1-4)GlcNAc
# How it was run: as §1
# [50] = target: Neu5Gc(a2-6)GalNAc
# How it was run: as §1
binder,measurement,setting,value
"RNase 1 (Bos taurus), P61823 (protein) MALKSLVLLSLLVLVLLLVRVQPSLGKETAAAKFERQHMDSSTSAASSSNYCNQMMKSRNLTKDRCKPVNTFVHESLADVQAVCSQKNVACKNGQTNCYQSYSTMSITDCRETGSSKYPNCAYKTTQANKHIIVACEGNPYVPVHFDASV",glycan array binding signal (z-score),[1],0.615
same,glycan array binding signal (z-score),[2],-0.179
same,glycan array binding signal (z-score),[3],-0.195
same,glycan array binding signal (z-score),[4],-0.174
same,glycan array binding signal (z-score),[5],-0.164
same,glycan array binding signal (z-score),[6],-0.204
same,glycan array binding signal (z-score),[7],-0.235
same,glycan array binding signal (z-score),[8],0.048
same,glycan array binding signal (z-score),[9],0.146
same,glycan array binding signal (z-score),[10],-0.21
same,glycan array binding signal (z-score),[11],-0.225
same,glycan array binding signal (z-score),[12],-0.203
same,glycan array binding signal (z-score),[13],-0.24
same,glycan array binding signal (z-score),[14],-0.186
same,glycan array binding signal (z-score),[15],-0.22
same,glycan array binding signal (z-score),[16],-0.133
same,glycan array binding signal (z-score),[17],-0.223
same,glycan array binding signal (z-score),[18],-0.22
same,glycan array binding signal (z-score),[19],0.086
same,glycan array binding signal (z-score),[20],-0.187
same,glycan array binding signal (z-score),[21],-0.234
same,glycan array binding signal (z-score),[22],-0.171
same,glycan array binding signal (z-score),[23],-0.207
same,glycan array binding signal (z-score),[24],-0.24
same,glycan array binding signal (z-score),[25],-0.237
same,glycan array binding signal (z-score),[26],-0.237
same,glycan array binding signal (z-score),[27],-0.14
same,glycan array binding signal (z-score),[28],-0.21
same,glycan array binding signal (z-score),[29],-0.188
same,glycan array binding signal (z-score),[30],-0.13
same,glycan array binding signal (z-score),[31],-0.25
same,glycan array binding signal (z-score),[32],-0.214
same,glycan array binding signal (z-score),[33],-0.212
same,glycan array binding signal (z-score),[34],-0.216
same,glycan array binding signal (z-score),[35],-0.214
same,glycan array binding signal (z-score),[36],-0.22
same,glycan array binding signal (z-score),[37],-0.202
same,glycan array binding signal (z-score),[38],-0.226
same,glycan array binding signal (z-score),[39],-0.221
same,glycan array binding signal (z-score),[40],-0.206
same,glycan array binding signal (z-score),[41],-0.187
same,glycan array binding signal (z-score),[42],-0.221
same,glycan array binding signal (z-score),[43],0.183
same,glycan array binding signal (z-score),[44],-0.222
same,glycan array binding signal (z-score),[45],-0.233
same,glycan array binding signal (z-score),[46],-0.134
same,glycan array binding signal (z-score),[47],-0.226
same,glycan array binding signal (z-score),[48],-0.221
same,glycan array binding signal (z-score),[49],-0.201
same,glycan array binding signal (z-score),[50],-0.197
